Source: PubChem BioAssay AID493208 (National Center for Advancing Translational Sciences (NCATS), 2011)
Out of some 44,000 compounds screened, about 340 (0.77%) were called active. Not shown: some 5% with an inconclusive outcome. The call rests on the fitted dose curve; in most records, active means well fitted inhibition curve with a large enough effect; inconclusive means small, poorly fitted or top-dose-only effect; inactive means flat fitted curve, though single readings scatter. Some of the results follow.

Assay: Acumen qHTS Assay for Inhibitors of the mTORC1 Signaling Pathway in MEF (Tsc2-/-, p53-/-) Cells: Sytravon;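 further: plate controls were DMSO for no effect and rapamycin for full effect; nearly all actives have a fitted effect of over 50% in size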
Conditions: phospho-rpS6 immunofluorescence/PI, 24 h; series mostly up to 38.3 µM; activity change, negative = inhibition: at the top concentration
Description: NIH Molecular Libraries Probe Production Centers Network [MLPCN] NIH Chemical Genomics Center [NCGC] MLPCN Grant: NS059428-01 Assay Submitter (PI): Blenis, John; Hoffman, Greg; Harvard University NCGC Assay Overview: The mammalian target of rapamycin (mTOR) is an intracellular serine/threonine kinase Aberrant regulation of mTOR signaling plays a causative role in a number of human diseases, including cancer, benign tumors such as lymphangioleiomyomatosis (LAM) and Tuberous Sclerosis Complex (TSC), and metabolic diseases such as diabetes and obesity. This project aims to identify inhibitors of ribosomal protein S6 (rpS6) phosphorylation. The phosphorylation of rpS6 is a key event downstream of mTOR activation. The assay uses a phospho-specific antibody of phospho-rpS6 to detect inhibitors of mTOR activation. Mutations in the Tsc1 and Tsc2 genes are the underlying genetic lesions responsible for TSC, causing constitutive activation of the mTORC1 pathway and leading to profound effects on cell metabolism. Aberrant metabolism in cancer has recently received significant attention as a target to develop therapeutic agents in the treatment of cancer.1 As Tsc2-/- cells have lost the ability to respond to energy and growth factor deprivation, these cells are unable to properly down regulate cellular biosynthetic processes in response to metabolic stress, and are thus extremely sensitive to glucose deprivation-induced death.2 A central goal of this project is to explore the unique cell survival and metabolic properties of cells with Tsc1 or Tsc2 by screening for compounds that selectively target the Tsc2-/- MEFs by screening both Tsc2-/- and WT MEF cell lines. We hope to better understand these aspects of TSC physiology in order to exploit them for therapeutic benefit.
NCGC Acumen Assay Protocol Summary: For quantitative high throughput analysis of mTORC1 signaling, we developed a cell-based assay for immuno-fluorescence based detection of rpS6 phosphorylation on the Acumen Explorer that will be used a platform for the primary small molecule screen. Mouse embryonic fibroblasts (MEFs) are cultured in 1536-well plates using DMEM + 10% FBS. Twenty-four hrs after plating, test compounds (solubilized in DMSO) are delivered and incubated with the cells for 24 hrs at 37 degree Celsius. Following the incubation, media with compound is aspirated and the cells are fixed in 4% paraformaldehyde (PFA) containing PBS + 0.2% TX-100. Next, PFA is aspirated, cells are washed two times with PBS plus 0.2% TX-100 and the cells are blocked for 1 hr at room temperature (blocking buffer: LiCOR Blocking Buffer plus 0.2% TX-100). […] Cells are washed two times with PBS plus 0.2% TX-100, and stained with 10 uM propidium iodide (PI) for 20-25 minutes for cell number measurement (1:500 dilution of Hoescht staining is also added for IN Cell imaging). The plates are scanned on the Acumen Explorer laser scanning instrument (TTP Labtech) using the 488nm laser for simultaneous excitation of the Alexa-488 and PI. […] The normalized phospho-S6 staining is calculated as the ratio of the integrated Alexa 488 intensity divided by the integrated PI intensity for the single concentration rapamycin control (7.5 nM) and DMSO columns. […] Inhibition of the pathway is defined based on the normalized phospho-S6 intensity in rapamycin treated cells. Active cells are defined as those with a normalized phospho-S6 staining above this threshold, and each treatment is reported as the % positive cells in the well, where thresholds are defined by selecting wells with the highest and lowest signal and differentiating between the % non-active and % active populations. In addition to the pathway specific phospho-S6 endpoint, the number of PI stained cells from the Acumen is recorded as a measure of cell viability. The primary screen was performed with a MEF cell line in a defined genetic background, Tsc2-/-, p53-/- cell line stably transfected with an empty vector control (Tsc2-/- MEF).

SMILES	activity change, negative = inhibition
CCn1c(C)c(C)c2cc(C(=O)NCCc3cc(OC)ccc3OC)ccc21	inactive: -2.61%
Cc1oc2ncn(CC(C)C)c(=O)c2c1C(=O)NCCCN(C)Cc1ccccc1	inactive: -6.54%
O=C(Nc1cccc(C(F)(F)F)c1)C1CCCN(S(=O)(=O)c2cccc3nonc23)C1 (configuration not stated)	inactive: -20.8%
Cc1oc2c(C)c3oc(=O)c(CCC(=O)N4CCCCC4)c(C)c3cc2c1C	inactive: -0.787%
Cc1cc2oc(C(=O)Nc3ccc(S(=O)(=O)N(C)c4ccccc4)cc3)cc(=O)c2cc1C	inactive: -2.06%
COc1cc(-c2nnc(SCCOc3ccccc3)o2)cc(OC)c1OC	inactive: 1.08%
CCOC(=O)Cn1c(=O)oc2cc(S(=O)(=O)Nc3ccccc3F)ccc21	inactive: -0.697%
CCOC(=O)c1c(SCC(=O)Nc2cccc(C)c2C)nc(=O)[nH]c1C	inactive: -2.37%
Cc1ccc(Cn2c(CO)cnc2SCC(=O)Nc2cccc(F)c2)cc1	inactive: -0.0914%
COc1ccc(-c2noc(-c3ccc(NCCc4ccccc4)c([N+](=O)[O-])c3)n2)cc1	inactive: 1.54%
CC(=O)N1CCc2c(sc(NC(=O)CSc3ccc(F)cc3)c2-c2nc3ccccc3s2)C1	inactive: -18.1%
O=C(Cn1cc(S(=O)(=O)Cc2ccccc2Cl)c2ccccc21)Nc1ccc(F)cc1F	inactive: -3.96%
COc1ccccc1N1CCN(C(=O)COc2ccccc2C#N)CC1	inactive: 0.697%
CCOc1ccc(S(=O)(=O)N2CCC(n3c(C)nc4cccnc43)CC2)cc1	inactive: 0.613%
COC(=O)c1ccc2c(c1)N(Cc1cc(C)ccc1C)C(=O)c1ccccc1S2(=O)=O	inactive: -10.9%
O=C(Cn1ncc2c(Cl)cccc21)NCc1cccc(F)c1	inactive: -0.92%
CCCCN(c1ccccc1)c1ncnc2c1cnn2-c1cccc(C)c1	inactive: 1.98%
CC(=O)Nc1ccc2nc(SCCOc3ccccc3Cl)sc2c1	inactive: -7.91%
CCOC(=O)c1c(C)[nH]c(C)c1S(=O)(=O)N(C)CC(=O)Nc1ccc(C)c(F)c1	inactive: 0%
Cc1cc(C)c(NC(=O)C2CCCN(C(=O)c3cnn(-c4ccccc4)c3-n3cccc3)C2)c(C)c1 (configuration not stated)	inactive: -10.7%
CCc1ccccc1NC(=O)c1ccc2c(c1)c(C)c(C)n2Cc1ccccc1	inactive: -7.35%
COC(=O)c1cc2sccc2n1Cc1nc(-c2ccc(C)cc2)oc1C	inactive: -1.53%
CN(C(=O)CSc1nc2ccccc2n1CC(=O)N(C)C1CCCCC1)c1ccc(F)cc1	inactive: 4.69%
O=C(COc1ccc(Br)cc1)Nc1ccc(C(=O)OC2CCCCC2)cc1	inactive: -3.84%
CCc1nnc2c3ccccc3nc(N3CCN(c4cc(Cl)ccc4C)CC3)n12	inactive: 4.16%
CCOc1ccc(NC(=O)Cn2c(=O)n(-c3ccccc3)c(=O)c3c4c(sc32)CCCC4)cc1	inactive: -16.7%
COC(=O)c1c(Oc2ccc(Br)cc2)nnc(-c2ccccc2)c1-c1ccccc1	inactive: -1.75%
